{
  "source": "PubChem BioAssay AID1645882",
  "about": "(National Center for Advancing Translational Sciences (NCATS), 2021)",
  "note": "In all, about 16,000 compounds went through this assay and about 120 (0.75%) were called active. Inconclusive results (about 4%) are left out. The call rests on the fitted dose curve; in most records, active means well fitted inhibition curve with a large enough effect; inconclusive means small, poorly fitted or top-dose-only effect; inactive means no such curve, though single readings can be large or run the other way. The list shows a part of the results. Potency means the concentration at half of the fitted maximal effect.",
  "data": [
    {"target": "Rap guanine nucleotide exchange factor 3 (Homo sapiens) (UniProt O95398)", "sequence (O95398 whole entry, looked up)": "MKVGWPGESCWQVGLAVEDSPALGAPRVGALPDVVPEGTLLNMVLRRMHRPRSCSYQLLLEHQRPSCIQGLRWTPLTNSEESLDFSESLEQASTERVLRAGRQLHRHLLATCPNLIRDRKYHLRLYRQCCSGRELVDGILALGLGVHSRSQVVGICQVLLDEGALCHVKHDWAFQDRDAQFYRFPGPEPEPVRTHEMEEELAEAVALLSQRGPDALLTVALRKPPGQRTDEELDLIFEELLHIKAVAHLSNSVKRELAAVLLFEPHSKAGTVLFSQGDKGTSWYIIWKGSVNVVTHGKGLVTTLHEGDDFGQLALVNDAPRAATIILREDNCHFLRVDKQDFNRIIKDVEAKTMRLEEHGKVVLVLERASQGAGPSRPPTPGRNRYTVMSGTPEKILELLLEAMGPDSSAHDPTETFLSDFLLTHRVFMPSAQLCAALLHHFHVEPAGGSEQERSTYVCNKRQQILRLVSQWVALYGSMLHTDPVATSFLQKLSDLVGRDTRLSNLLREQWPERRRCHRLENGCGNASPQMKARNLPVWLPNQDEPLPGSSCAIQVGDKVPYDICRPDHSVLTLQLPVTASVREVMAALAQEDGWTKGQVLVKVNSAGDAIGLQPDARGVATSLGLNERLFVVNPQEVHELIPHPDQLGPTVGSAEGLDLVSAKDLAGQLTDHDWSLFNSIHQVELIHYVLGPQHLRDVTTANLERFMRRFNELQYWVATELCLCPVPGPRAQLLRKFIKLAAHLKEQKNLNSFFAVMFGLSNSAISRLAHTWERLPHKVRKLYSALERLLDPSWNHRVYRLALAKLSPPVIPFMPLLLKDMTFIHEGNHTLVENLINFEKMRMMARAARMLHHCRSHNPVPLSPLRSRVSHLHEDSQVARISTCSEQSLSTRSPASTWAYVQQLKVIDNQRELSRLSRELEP", "assay": "Validation qHTS for antagonist of cAMP-regulated guanine nucleotide exchange factor 3 (EPAC1); further: nearly all actives have a fitted effect of over 75% in size", "settings": "EPAC1 Rap1B-BODIPY-GDP exchange, fluorescence; activity change, negative = inhibition: at the top concentration", "excerpt": "Assay Provider (PI): Xiaodong Cheng Ph.D.\nThe University of Texas Medical Branch, […], TX\nIn multi-cellular eukaryotic organisms, the effects of cAMP are transduced by two ubiquitously-expressed intracellular cAMP receptors, the classic protein kinase A/cAMP-dependent protein kinase (PKA/cAPK) and the more recently discovered exchange protein directly activated by cAMP/cAMP-regulated guanine nucleotide exchange factor (EPAC/cAMP-GEF). Both PKA and EPAC are ubiquitously expressed in all tissues, and an increase in intracellular cAMP levels will lead to the activation of both PKA and EPAC. Therefore, careful dissections of the individual role and relative contribution of EPAC and PKA within the overall cAMP signaling in various model systems are critical for further elucidating the mechanism of cAMP signaling. To date no EPAC-specific antagonists and agonist, as well as isoform-specific agonists have been reported, and developing EPAC-specific pharmacological probes to determine the physiological functions that EPAC play in the overall cAMP-mediated signaling remains a major challenge within the research field. Furthermore, identified regulators of EPAC may lead to new mechanism-based therapeutic strategies specifically targeting the EPAC / cAMP-signaling components as EPAC has been implicated to play important roles in major human pathological conditions such as diabetes, heart disease, and cancer.\nThis qHTS will be used to screen the Molecular Libraries Small Molecule Repository (MLSMR) as a concentration-titration series using the NCGC unique quantitative screening (qHTS) platform to find activators for EPAC1. In addition, this assay will also be used as a counterscreen for the EPAC2 qHTS. This fluorescent based assay is developed and validated for EPAC1 that measures exchange using EPAC effector Rap1 complex with BODIPY-GDP, a GDP analog with a tethered fluorophores. Activators are identified by monitoring the change in fluorescence signal as the exchanged free BODIPY-GDP has a reduced fluorescence compared to Rap1-bound BODIPY-GDP. Increase in signal (activation) is the desired outcome for the EPAC1 agonist while no activity in this assay is desired for the EPAC2 agonist counterscreen.\n[1] de Rooij, J., Zwartkruis, F. J., Verheijen, M. H., Cool, R. H., Nijman, S. M., Wittinghofer, A., and Bos, J.L. (1998) Nature 396, 474-477.\nBriefly, three uL of reagents (100 nM EPAC1, 250 nM RAP1B-BODIPY-GDP, 50 uM GDP) were dispensed into a 1536-well Greiner black solid-bottom medium binding assay plate. Controls and test compounds (23 nL) were transferred to the plate via a Kalypsys pin tool equipped with a 1536-pin array. The plates were centrifuged at 1,000 rpm for 15 seconds followed by 5 minute incubation at room temperature. The assay plates were read at 5 minute intervals for 30 minutes in the ViewLux plate reader using 480nm excitation and 540nm emission filters. The results were normalized to the […] positive control ATA and DMSO.", "values": [
      {"smiles": "CN1CC[C@@H]2CN3CCc4cccc(c43)[C@H]2C1", "activity change, negative = inhibition": "inactive: -17.3%"},
      {"smiles": "O=C(Oc1ccccc1)N1CCC[C@@]2(CCN(Cc3ccccc3)C2)C1", "activity change, negative = inhibition": "inactive: -2.81%"},
      {"smiles": "COc1cc(CC(C)N)c(OC)cc1Br", "note": "(stereo unspecified)", "activity change, negative = inhibition": "inactive"},
      {"smiles": "C[N+](C)(C)CC(=O)[O-]", "activity change, negative = inhibition": "inactive: -2.46% [at 75.8 µM]"},
      {"smiles": "N#CC1(N2CCCCC2)CCCCC1", "activity change, negative = inhibition": "inactive: 10%"},
      {"smiles": "CNC1[C@@H](O)C(OC2C(N)C[C@H](N)[C@@H](O[C@@H]3OC(C(C)O)C(O)C(O)C3N)C2O)OC[C@]1(C)O", "note": "(stereo partly specified)", "activity change, negative = inhibition": "inactive: 5.43%"},
      {"smiles": "C[N+]1(C)C2CCC1CC(OC(=O)C(CO)c1ccccc1)C2", "note": "(stereo unspecified)", "activity change, negative = inhibition": "inactive"},
      {"smiles": "CC1CCC(C(C)C)C(OC(=O)c2ccccc2N)C1", "note": "(stereo unspecified)", "activity change, negative = inhibition": "inactive: -9.58%"},
      {"smiles": "CCCN(CCC)C1Cc2cc(OC)c(OC)cc2C1", "activity change, negative = inhibition": "inactive"},
      {"smiles": "C[C@H]1[C@H]2Cc3ccc(O)cc3[C@]1(C)CCN2CCc1ccccc1", "activity change, negative = inhibition": "inactive: 27.1% [at 320 µM]"},
      {"smiles": "O=c1c2ccccc2[se]n1-c1ccccc1", "activity change, negative = inhibition": "inactive"},
      {"smiles": "c1ccc2c(c1)Nc1ccccc1S2", "activity change, negative = inhibition": "inactive"},
      {"smiles": "O=C(O)c1nn(Cc2ccc(Cl)c(Cl)c2)c2ccccc12", "activity change, negative = inhibition": "inactive: 9.95%"},
      {"smiles": "C[C@]12CC[C@H]3[C@@H](CC=C4C[C@@H](O)CC[C@@]43C)[C@@H]1CC[C@@H]2O", "activity change, negative = inhibition": "inactive: -5.16%"},
      {"smiles": "CC(C)(C)C(O)C(Oc1ccc(Cl)cc1)n1cncn1", "note": "(stereo unspecified)", "activity change, negative = inhibition": "inactive: 41.3% [at 320 µM]"},
      {"smiles": "C=C(C)[C@H]1C2C(=O)O[C@H]1[C@H]1OC(=O)[C@@]34O[C@@H]3C[C@]2(O)[C@@]14C", "activity change, negative = inhibition": "inactive"},
      {"smiles": "CN(C)CCc1c[nH]c2cccc(O)c12", "activity change, negative = inhibition": "inactive: 41% [at 320 µM]"},
      {"smiles": "N#Cc1ccc(CN2CCCC3(CCN(C(=O)Oc4ccccc4)CC3)C2)cc1", "activity change, negative = inhibition": "inactive: -4.06%"},
      {"smiles": "O=c1ccc2cc(O[C@@H]3O[C@H](CO)[C@@H](O)[C@H](O)[C@H]3O)c(O)cc2o1", "activity change, negative = inhibition": "inactive: 13.9% [at 75.8 µM]"},
      {"smiles": "COc1cc2c(cc1O)C[C@H]1c3c(cc(OC)c(O)c3-2)CCN1C", "activity change, negative = inhibition": "inactive: -2.92%"},
      {"smiles": "CC(C)NC(C)Cc1ccc(I)cc1", "note": "(stereo unspecified)", "activity change, negative = inhibition": "inactive"},
      {"smiles": "O=C(Oc1ccccc1)N1CCC2(CCN(Cc3ccccc3)CC2)CC1", "activity change, negative = inhibition": "inactive: 26.2%"},
      {"smiles": "CC(C)=CCCC1(C)C=Cc2c(O)c3c(c(CC=C(C)C)c2O1)OC12C(=CC4CC1C(C)(C)OC2(C/C=C(/C)C(=O)O)C4=O)C3=O", "note": "(stereo unspecified)", "Potency": "active: 50.1 µM"},
      {"smiles": "O=C1c2ccccc2-c2cccc3cccc1c23", "activity change, negative = inhibition": "inactive: 15.5%"},
      {"smiles": "CSCC[C@H](NC(=O)[C@H](Cc1ccccc1)NC(=O)CNC(=O)CNC(=O)[C@@H](N)Cc1ccc(O)cc1)C(=O)O", "activity change, negative = inhibition": "inactive: -4.49% [at 15.3 µM]"},
      {"smiles": "CNCC/C=C/c1cccnc1", "activity change, negative = inhibition": "inactive: -2.41%"},
      {"smiles": "C[C@](O)(CS(=O)(=O)c1ccc(F)cc1)C(=O)Nc1ccc(C#N)c(C(F)(F)F)c1", "activity change, negative = inhibition": "inactive: 23%"},
      {"smiles": "COC(=O)N1CCN(C(=O)Cc2ccc(Cl)c(Cl)c2)C(CN2CCCC2)C1", "note": "(stereo unspecified)", "activity change, negative = inhibition": "inactive"},
      {"smiles": "NCC(O)c1ccc(O)cc1", "note": "(stereo unspecified)", "activity change, negative = inhibition": "inactive"},
      {"smiles": "COc1ccc2[nH]cc(CCN(C)C)c2c1", "activity change, negative = inhibition": "inactive: 25.3%"},
      {"smiles": "CC1C(=O)OC2C1CC[C@@]1(C)C=CC(=O)[C@@]3(C)O[C@@]213", "note": "(stereo partly specified)", "activity change, negative = inhibition": "inactive: 8.54%"},
      {"smiles": "Cc1nnc2n1-c1sc(Br)cc1C(c1ccccc1Cl)=NC2", "activity change, negative = inhibition": "inactive: 39.5%"},
      {"smiles": "N#Cc1nn(-c2c(Cl)cc(C(F)(F)F)cc2Cl)c(N)c1S(=O)C(F)(F)F", "note": "(stereo unspecified)", "activity change, negative = inhibition": "inactive"},
      {"smiles": "COc1cc2c(cc1O)CCNC2C", "note": "(stereo unspecified)", "activity change, negative = inhibition": "inactive: 10.6%"},
      {"smiles": "CC1=C(O)C(=O)[C@@H]2O[C@@H]2C1=O", "activity change, negative = inhibition": "inactive: 19.9%"},
      {"smiles": "C[N+]1([O-])[C@@H]2CC(OC(=O)[C@H](CO)c3ccccc3)C[C@H]1[C@@H]1O[C@@H]12", "note": "(stereo partly specified)", "activity change, negative = inhibition": "inactive"},
      {"smiles": "NC(CCCCCP(=O)(O)O)C(=O)O", "note": "(stereo unspecified)", "activity change, negative = inhibition": "inactive: -4.64% [at 75.8 µM]"},
      {"smiles": "CCCCCCCCOC(=O)c1ccccc1C(=O)OCCCCCCCC", "activity change, negative = inhibition": "inactive: 28.9%"},
      {"smiles": "O=C(Oc1ccccc1)N1CCC2(CC1)CN(C(c1ccccc1)c1ccccc1)C2", "activity change, negative = inhibition": "inactive: -20.6%"},
      {"smiles": "CNC1C2CN3CCC(O2)C13", "note": "(stereo unspecified)", "activity change, negative = inhibition": "inactive: 12.6%"},
      {"smiles": "O=C1Nc2cc(Cl)c(Cl)cc2N2CCNC[C@H]12", "activity change, negative = inhibition": "inactive: -1.08%"},
      {"smiles": "COc1c2c(cc3c1OCO3)CCN(C)C2", "activity change, negative = inhibition": "inactive: -1.6% [at 75.8 µM]"},
      {"smiles": "CC1(C)[C@H](C=C(Cl)Cl)[C@H]1C(=O)OCc1c(F)c(F)cc(F)c1F", "activity change, negative = inhibition": "inactive: 2.06%"},
      {"smiles": "N[C@H](Cc1o[nH]c(=O)c1Cl)C(=O)O", "activity change, negative = inhibition": "inactive: 9.26%"},
      {"smiles": "CN1CCc2cccc(Cl)c2CC1", "activity change, negative = inhibition": "inactive: 14.8% [at 75.8 µM]"},
      {"smiles": "C[C@]12CC[C@@H]3c4ccc(OC(=O)N(CCCl)CCCl)cc4CC[C@H]3[C@@H]1CC[C@@H]2OP(=O)(O)O", "activity change, negative = inhibition": "inactive"},
      {"smiles": "CC(C)CN1CC[C@@]2(CCCN(C(=O)c3ccncc3)C2)C1", "activity change, negative = inhibition": "inactive: 27.5%"},
      {"smiles": "Nc1ccc(Cl)cc1", "activity change, negative = inhibition": "inactive: -4.67% [at 320 µM]"},
      {"smiles": "CC(C)CN1CCCC2(CCN(C(=O)c3ccncc3)CC2)C1", "activity change, negative = inhibition": "inactive: 10.1%"},
      {"smiles": "CN[C@@H](C)[C@H](O)c1ccccc1", "activity change, negative = inhibition": "inactive: 53.3%"},
      {"smiles": "O=C1/C(=C/c2ccc(N(CCCl)CCCl)cc2)Cc2ccccc21", "activity change, negative = inhibition": "inactive: 25.5%"},
      {"smiles": "C=CCN1CC[C@]23CCCCC2[C@H]1Cc1ccc(O)cc13", "note": "(stereo partly specified)", "activity change, negative = inhibition": "inactive: 3.27% [at 75.8 µM]"},
      {"smiles": "CC[C@]1(O)CC[C@H]2[C@@H]3CCC4=CCCC[C@@H]4[C@H]3CC[C@@]21C", "activity change, negative = inhibition": "inactive: 5.98%"},
      {"smiles": "S=C=Nc1cccc(C2(N3CCCCC3)CCCCC2)c1", "activity change, negative = inhibition": "inactive: 15.4%"},
      {"smiles": "CNC(=O)CSP(=S)(OC)OC", "activity change, negative = inhibition": "inactive: 16.7%"},
      {"smiles": "CCNc1nc(Cl)nc(NC(C)C)n1", "activity change, negative = inhibition": "inactive: -5.08%"}
    ]}
  ]
}
